Assay results reported in PubChem BioAssay AID624417 (National Center for Advancing Translational Sciences (NCATS), 2012).
Hit rate of the full screen: of about 410,000 compounds, about 6,400 (1.6%) were called active. Inconclusive results, whose numbers are uncertain, are shown with a selection of clear calls. The call rests on the fitted dose curve; in most records, active means well fitted inhibition curve with a large enough effect; inconclusive means small, poorly fitted or top-dose-only effect; inactive means no such curve, though single readings can be large or run the other way. Where the call is inconclusive, the potency comes from a doubtful curve fit.

Molecular target: Glucagon-like peptide 1 receptor (Homo sapiens) (UniProt P43220)
UniProt P43220, sequence (P43220 whole entry, looked up): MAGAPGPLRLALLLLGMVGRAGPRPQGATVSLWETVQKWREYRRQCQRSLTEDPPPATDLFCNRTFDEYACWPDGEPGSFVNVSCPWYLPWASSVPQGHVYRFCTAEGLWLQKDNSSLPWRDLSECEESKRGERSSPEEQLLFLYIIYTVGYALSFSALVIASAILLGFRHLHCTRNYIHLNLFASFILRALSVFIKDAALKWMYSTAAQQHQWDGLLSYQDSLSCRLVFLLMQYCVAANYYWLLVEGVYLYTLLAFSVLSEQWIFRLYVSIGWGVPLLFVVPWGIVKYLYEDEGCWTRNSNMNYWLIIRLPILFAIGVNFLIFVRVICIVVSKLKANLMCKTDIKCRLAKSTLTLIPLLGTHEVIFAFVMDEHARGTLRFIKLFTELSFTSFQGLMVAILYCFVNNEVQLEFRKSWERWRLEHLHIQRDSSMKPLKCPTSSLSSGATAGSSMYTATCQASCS
Assay: qHTS of GLP-1 Receptor Inverse Agonists (Inhibition Mode); further: nearly all actives have a fitted effect of over 55% in size
Settings: HEK293 GLP-1R CRE-luciferase, luminescence, 24 h, GLP-1R form is constitutively active; series mostly up to 38.3 µM
Summary of the method: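 Readout was luciferase luminescence, measured 12 min after detection reagent at room temperature. Beforehand, GLP-1R reporter HEK293 cells had sat 12 h, then received compounds for 24 hr at 37 deg C.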
Potency means the concentration at half of the fitted maximal effect; tags describe the fitted curve by direction and shape.

Potency, inactive:
O=S(=O)(NCCc1csc2nc(-c3ccc(F)cc3)nn12)c1ccc2c(c1)OCCO2, CCn1c(SCC(=O)NC2CCCC2)nnc1-c1ccccn1, N#C/C(=C\c1ccc(OCc2ccc(C(=O)O)cc2)cc1)C(=O)NCc1ccccc1, CC(=O)Nc1ccc(NC(=O)CC(C)n2ccc(C)n2)cc1 (stereo not drawn), Nc1nonc1-c1nc2ccccc2n1CC(=O)N1CCCCC1, C[C@@H]1COC(=O)[C@H](NC(=O)OCC2c3ccccc3-c3ccccc32)C/C=C\C[C@@H](CC(=O)N[C@@H](CO)Cc2ccccc2)C(=O)N1, CC(=O)Nc1ccc(S(=O)(=O)NC2CCS(=O)(=O)C2)cc1Cl (stereo not drawn), COc1ccc([N+](=O)[O-])cc1NC(=O)COC(C)=O, Cc1ccc(SCC(=O)NCCSC(C)(C)C)cc1, COc1ccc(NC(=O)CN(C)CC(=O)Nc2ccccc2SC)cc1, CCOC(=O)c1c(C)oc2nc(C)nc(NCCCN3CCN(c4ccccc4OC)CC3)c12, CCOc1nc(N=C(N)N)nc2c(C)cccc12, COc1cc2c(cc1NC(=O)C(Cl)Cl)-c1ccc(NC(=O)C(Cl)Cl)cc1C2, COc1cccc(C(=O)Nc2nc3nc(C)c(Cc4ccccc4)c(=O)n3[nH]2)c1, Cc1nc2ccc(NC3=NCCCCC3)cc2s1

Potency, inconclusive:
COc1ccc(-c2cc(C(=O)N3CC(C)CC(C)C3)c3ccccc3n2)cc1OC (stereo not drawn) 20 µM [inhibitor, single point], COc1ccc(C2C(C(=O)N3CCN(c4ccccc4F)CC3)c3ccccc3C(=O)N2C)cc1 (stereo not drawn) 28.2 µM [inhibitor, single point], COc1ccc(C(CNC(=O)c2cccc(S(=O)(=O)Nc3ccccc3OC)c2)N2CCCCC2)cc1 (stereo not drawn) 10 µM [inhibitor, partial curve, poor fit], O=C(NCCC1CCCCN1S(=O)(=O)c1ccc(F)cc1)C(=O)Nc1ccccc1F (stereo not drawn) 11.2 µM [inhibitor, partial curve, poor fit], O=C(CCC(=O)N1CCCC(Nc2ccccc2)C1)c1ccc(F)cc1 (stereo not drawn) 11.2 µM [inhibitor, partial curve, poor fit], CCCOc1ccc(F)cc1-c1cc(C(=O)NCc2cc(OC)cc(OC)c2)[nH]n1 28.2 µM [inhibitor, single point], CSc1nc(C)cc(OCC(=O)N/N=C/c2ccccc2O)n1 1.58 µM [inhibitor, full curve, poor fit], CCCOc1ccc(C(=O)C(c2ccccc2)N2CCOCC2)cc1 (stereo not drawn) 10 µM [inhibitor, partial curve], Cc1cc(NC(=O)C(C)SCC(=O)Nc2ccc(Br)cc2Br)no1 (stereo not drawn) 11.2 µM [inhibitor, single point], Cc1cc(C(=O)Nc2cccc(C(F)(F)F)c2)c2c(C)nn(-c3cccc(F)c3)c2n1 5.62 µM [inhibitor, full curve, poor fit], Oc1ccc(Cc2ccc(Cl)cc2)c(O)c1 28.2 µM [inhibitor, single point], O=C(NCC1CCCO1)c1cn(-c2ccccc2)nc1-c1ccc(F)cc1 (stereo not drawn) 20 µM [inhibitor, single point], O=C(c1cccc([N+](=O)[O-])c1)N1c2nc(-c3ccco3)nn2C2(CCCCC2)[C@@H]2CCCC[C@@H]21 11.2 µM [inhibitor, single point], CCN(c1ccccc1)S(=O)(=O)c1ccc(C(=O)Nc2nnc(CSC)o2)cc1 7.08 µM [inhibitor, partial curve, poor fit], Cn1c(=O)[nH]c(=O)c2c1nc(Br)n2C/C=N/Nc1ccccc1 1.78 µM [inhibitor, full curve, poor fit], CC(C)Cn1nc(NC(=O)c2cccs2)c2cc3ccccc3nc21 28.2 µM [inhibitor, single point], Cc1ccc(OCC(=O)N(Cc2ccc(N(C)C)cc2)CC2CCCO2)cc1C (stereo not drawn) 12.6 µM [inhibitor, single point], Cc1ccc(C)c(NC2CCCCC2NS(=O)(=O)c2ccccc2)c1 (stereo not drawn) 6.31 µM [inhibitor, partial curve, poor fit], COc1ccc(-n2ncc(Cl)c(Cl)c2=O)cc1 28.2 µM [inhibitor, single point], O=C(NCc1ccccc1)C1=C[C@@H](c2ccc(Br)cc2)C[C@@H](OCCCCO)O1 10 µM [inhibitor, partial curve, poor fit], O=C(NCCSc1ccc(Br)cc1)c1ccc2nc[nH]c2c1 17.8 µM [inhibitor, partial curve, poor fit], CCOc1ccc(CNCCN2CCCC2)cc1 11.2 µM [inhibitor, single point], Cc1cccc2c1-c1sc(C(=O)Nc3ccccc3N3CCN(C)CC3)cc1CO2 7.94 µM [inhibitor, partial curve, poor fit], CCCCOc1ccc(OC(=O)Nc2cc(Cl)ccc2OC)cc1 28.2 µM [inhibitor, single point], C=CC[C@@H](CC(=O)N[C@H](CO)Cc1ccccc1)C(=O)N[C@H](COC(=O)[C@@H](CC=C)CC(=O)OC(C)(C)C)Cc1c[nH]c2ccccc12 12.6 µM [inhibitor, single point], CCOc1ccc(S(=O)(=O)N/N=C(\C)c2ccc(Cl)c(Cl)c2Cl)cc1 28.2 µM [inhibitor, single point], O=C(Nc1ccc(F)cc1)C(c1cc2ccccc2o1)N1CCN(c2cccc(C(F)(F)F)n2)CC1 (stereo not drawn) 10 µM [inhibitor, partial curve], COc1ccccc1C(=O)O/N=C(\N)c1ccccn1 8.91 µM [inhibitor, partial curve, poor fit], Cc1cc(C(=O)Nc2ccc3c(c2)OCO3)no1 28.2 µM [inhibitor, single point], O=[N+]([O-])c1ccc2c(c1)C(N1CCN(CCO)CC1)Cc1ccc(F)cc1S2 (stereo not drawn) 28.2 µM [inhibitor, single point], C/C(CC(=O)Nc1ccc(C)c(Cl)c1)=N\NC(=O)Cc1cnc(N)s1 3.55 µM [inhibitor, partial curve, poor fit], Cc1ccc(S(=O)(=O)N2CCCCC2CCNC(=O)C(=O)NC2CCCC2)cc1 (stereo not drawn) 10 µM [inhibitor, partial curve, poor fit], CCOC(=O)c1c(C)[nH]c(C)c1S(=O)(=O)N(C)CC(=O)N1CCN(c2cccc(C)c2C)CC1 14.1 µM [inhibitor, partial curve, poor fit], CC(C)[C@H](NC(=O)C1CCN(S(=O)(=O)c2ccc(F)cc2)CC1)C(=O)NCc1ccco1 10 µM [inhibitor, single point], O=C(Nc1nnc([C@@H]2C[C@H](O)[C@@H](CO)O2)s1)NC(c1ccccc1)c1ccccc1 3.98 µM [inhibitor, partial curve, poor fit], Cc1cccc(C)c1NC(=O)NNC(=O)c1cc(C(C)(C)C)nn1Cc1ccccc1 11.2 µM [inhibitor, single point], O=C1Nc2cc(C(=O)NCCN3CCCCCC3)ccc2S/C1=C\c1ccccc1 8.91 µM [inhibitor, partial curve, poor fit], Cc1cc(Cl)ccc1NC(=O)CN1C(=O)NC2(CCCc3ccccc32)C1=O (stereo not drawn) 11.2 µM [inhibitor, single point], Oc1ccc(-c2nccc(-c3ccc(Br)cc3)n2)cc1 28.2 µM [inhibitor, single point], CC(C)CNC(=S)NC(=O)c1ccc(Cl)cc1 28.2 µM [inhibitor, single point], Cc1ccc(O)c(-c2n[nH]c3c2C(c2ccc(F)cc2)N(Cc2ccco2)C3=O)c1 (stereo not drawn) 25.1 µM [inhibitor, single point], Clc1ccc(OCCCCSc2ncccn2)cc1 31.6 µM [inhibitor, single point], O=C(COCc1cc(-c2cccs2)on1)Nc1cc(C(F)(F)F)ccc1Cl 31.6 µM [inhibitor, single point], O=C(N/N=C/c1ccsc1)c1cc(-c2cccs2)nc2ccccc12 31.6 µM [inhibitor, single point], O=C(Nc1ccc2c(c1)OCCO2)c1cccs1 8.91 µM [inhibitor, single point], CCCCNC(=O)c1nc(C2CCN(S(=O)(=O)c3ccccc3C(F)(F)F)CC2)oc1-c1cccc(C(F)(F)F)c1 5.01 µM [inhibitor, full curve, poor fit], Cn1nc(-c2ccccc2)cc1NC(=O)Nc1ccc(C(C)(C)C)cc1 6.31 µM [inhibitor, partial curve, poor fit], O=C1OCCN1C(=O)[C@H]1[C@H](c2ccc(F)cc2)C(c2ccccc2)=NN1c1ccc(Br)cc1 10 µM [inhibitor, partial curve, poor fit]
